Experimental data taken from PMC4336329 (PLoS ONE, 2015).
Screen size: about 310,000 compounds; about 2,200 (0.71%) showed an effect of 50% or more. The effect is printed as a negative number. The list shows a part of the results.

The molecules below were run against human ether-à-go-go-related gene (hERG) potassium channel (human, UniProt Q12809) (assay: primary screen, population patch clamp on CHO cells stably expressing hERG).
human ether-à-go-go-related gene (hERG) potassium channel, sequence (Q12809 whole entry, looked up): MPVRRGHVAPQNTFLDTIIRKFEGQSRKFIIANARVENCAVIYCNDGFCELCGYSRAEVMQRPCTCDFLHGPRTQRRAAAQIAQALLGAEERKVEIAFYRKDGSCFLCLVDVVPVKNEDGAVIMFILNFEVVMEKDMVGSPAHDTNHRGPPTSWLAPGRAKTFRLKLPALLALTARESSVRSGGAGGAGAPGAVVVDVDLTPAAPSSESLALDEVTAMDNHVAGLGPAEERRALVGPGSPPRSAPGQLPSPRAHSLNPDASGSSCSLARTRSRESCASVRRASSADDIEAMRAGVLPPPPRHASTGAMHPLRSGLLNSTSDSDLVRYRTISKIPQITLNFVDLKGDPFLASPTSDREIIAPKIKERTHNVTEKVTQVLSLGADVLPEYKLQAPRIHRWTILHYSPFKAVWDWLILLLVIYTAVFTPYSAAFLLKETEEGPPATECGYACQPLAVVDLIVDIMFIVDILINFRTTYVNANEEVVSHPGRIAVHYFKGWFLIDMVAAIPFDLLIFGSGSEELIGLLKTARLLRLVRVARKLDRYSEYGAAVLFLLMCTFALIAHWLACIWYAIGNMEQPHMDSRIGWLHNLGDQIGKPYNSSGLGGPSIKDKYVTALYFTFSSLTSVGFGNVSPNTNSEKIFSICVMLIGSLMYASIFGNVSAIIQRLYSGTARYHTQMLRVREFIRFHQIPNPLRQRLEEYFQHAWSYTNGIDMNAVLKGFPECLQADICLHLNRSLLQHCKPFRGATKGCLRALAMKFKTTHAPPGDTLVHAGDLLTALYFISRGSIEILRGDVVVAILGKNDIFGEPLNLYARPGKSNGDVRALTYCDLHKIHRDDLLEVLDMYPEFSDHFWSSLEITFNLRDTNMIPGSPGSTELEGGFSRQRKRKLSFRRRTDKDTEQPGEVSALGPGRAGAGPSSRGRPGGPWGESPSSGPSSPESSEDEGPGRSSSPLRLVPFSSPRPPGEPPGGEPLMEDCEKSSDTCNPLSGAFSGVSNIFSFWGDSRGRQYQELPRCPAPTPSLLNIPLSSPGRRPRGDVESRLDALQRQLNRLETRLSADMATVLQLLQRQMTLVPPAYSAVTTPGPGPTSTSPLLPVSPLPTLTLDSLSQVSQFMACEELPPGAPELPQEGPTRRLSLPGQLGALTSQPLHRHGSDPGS

| Structure (SMILES) | hERG current change (%, negative = inhibition) at 1uM |
| --- | --- |
| Cc1ccccc1C(=O)c1cccn1CC(=O)NCC(C)c1ccccc1 (stereo not drawn) | 4.86% |
| O=C(Nc1ccccc1Cl)N1CCn2c(nc3ccccc32)C1 | 17% |
| COc1ccc(OCCCC(=O)ON=C(N)c2ccccc2C)cc1 | 6.73% |
| COc1ccc(C2CC(C(F)(F)F)n3ncc(C(=O)NCc4cccnc4)c3N2)cc1OC (stereo not drawn) | 12.7% |
| CCC(=O)Nc1ccc(NC(=S)NC(=O)Cc2ccccc2)cc1 | 16.2% |
| Cc1ccc(Cl)cc1N1CCN(S(=O)(=O)c2cccc(S(=O)(=O)N3CCCC3)c2)CC1 | 9.31% |
| O=C(Cc1ccccc1)NCC(=O)N1CCC1 | 10.8% |
| O=C1Nc2cc(Cl)c(Cl)cc2N(O)N1c1ccccc1 | 14.6% |
| Cc1ccc(CSc2nnc(SCC(=O)N/N=C/C=C/c3ccccc3[N+](=O)[O-])s2)cc1 | 8.94% |
| Cc1ccccc1Nc1c([N+](=O)[O-])cncc1[N+](=O)[O-] | 9.67% |
| CCN1C(=O)[C@@H]2[C@@H](c3ccc(-c4ccc(F)cc4)cc3)N3CCCC[C@@]3(C(=O)OC)[C@@H]2C1=O.O=C(O)C(F)(F)F | 9.58% |
| CCOC(=O)Cn1nc2sc3ccccc3n2c(=O)c1=O | 0.315% |
| COc1ccc(/C=N/NC(=O)c2cccnc2)cc1O | 14.8% |
| CC(C)N(C)C(=O)C(=O)c1cccn1-c1cccc(Cl)c1C#N | 11% |
| C=CCN=C1SC(CC)C(=O)N1S(=O)(=O)c1ccc(C)cc1 (stereo not drawn) | -13.8% |
| CCC(=O)Nc1ccc(C(=O)N/N=C/c2ccccc2[N+](=O)[O-])cc1 | 18.9% |
| CCOC(=O)c1ccc(NC(=O)NCc2ccccc2OC)cc1 | 13.8% |
| COCCN(C(=O)CCCc1nc2ccccc2s1)c1c(N)n(CC(C)C)c(=O)[nH]c1=O | 16.3% |
| CS(=O)(=O)N1CCC(C(=O)Nc2cccc(C(F)(F)F)c2)CC1 | -1.35% |
| NS(=O)(=O)c1ccc(-c2ccc(/C=C3\SC(=O)NC3=O)o2)cc1 | 18.3% |
| O=C(c1ccc(Cl)cc1)N1CCC(=O)N(C(CO)Cc2ccccc2)CC1 (stereo not drawn) | 11.3% |
| O=C(CNS(=O)(=O)c1ccc(Br)cc1)NCc1ccncc1 | 11.3% |
| CCCCn1c(O)c(C(C)=NCCc2c[nH]c3ccccc23)c(=O)[nH]c1=O | -1.27% |
| Cc1ccc(S(=O)(=O)NC(CC(=O)N2CCc3ccccc32)c2ccco2)cc1 (stereo not drawn) | 6.47% |
